{"source": "PubChem BioAssay AID463173", "about": "(ICCB-Longwood Screening Facility, Harvard Medical School, 2010)", "note": "The campaign covered roughly 52,000 compounds. About 1,700 (3.3%) were called active. No stated cut-off is given here; in the data, active means survival mostly below about 52% (no sharp cut-off); inactive means mostly above about 56%. The list shows a part of the results."}
{"system": "Wild type", "assay": "growth inhibition of S. aureus wild type versus tarO mutant, primary screen, teichoic acid synthesis inhibitors, RN4220, OD600 (AID 463173)", "settings": "S. aureus RN4220 wild type/DeltatarO growth, OD600, 18 h, active compounds read low, screened at 18.75 µg/mL (by protocol)"}
{"smiles": "Cc1ccc(-n2nc3ccc(NC(=O)COc4ccccc4C)cc3n2)cc1", "survival": "inactive: 101%"}
{"smiles": "CCC1CN(S(=O)(=O)c2cc(-c3cc(C)no3)ccc2C)c2cc(C)ccc2O1", "note": "(centres undefined)", "survival": "inactive: 64%"}
{"smiles": "COC(=O)CSc1ncc(C#N)c(N)n1", "survival": "inactive: 104%"}
{"smiles": "CSc1ccc(CCNC(=O)c2cc(C)nc3c2c(C)nn3-c2ccccc2)cc1", "survival": "inactive: 124%"}
{"smiles": "Cc1ccc(-n2nc(CO)c(C(=O)NCCCCc3ccccc3)n2)cc1C", "survival": "inactive: 121%"}
{"smiles": "Cc1ccc(-c2nnc(Nc3cccc(Cl)c3)c3ccccc23)cc1S(=O)(=O)N1CCCCC1", "survival": "inactive: 88%"}
{"smiles": "COc1ccc(-c2nnc(SCC(=O)NCCc3ccc(OC)c(OC)c3)nc2-c2ccc(OC)cc2)cc1", "survival": "inactive: 95%"}
{"smiles": "Cc1nc2cccnc2n1-c1cccc(C(=O)N2CCN(c3cccc(Cl)c3)CC2)c1", "survival": "inactive: 102%"}
{"smiles": "Cc1ccc(C)c(N2CCN(S(=O)(=O)c3cc(-c4cc(C)no4)ccc3C)CC2)c1", "survival": "inactive: 73%"}
{"smiles": "Cc1cc(C)c(NC(=O)Cn2nc(-c3ccncc3)ccc2=O)c(C)c1", "survival": "inactive: 68%"}
{"smiles": "CCCn1c(=O)n(-c2ccccc2Cl)c(=O)c2sc3ccccc3c21", "survival": "inactive: 85%"}
{"smiles": "O=C(CN1C(=O)C(c2ccc(F)cc2)=NC12CCCCCC2)Nc1ccccc1Cl", "survival": "inactive: 82%"}
{"smiles": "CC(C)CC(NS(=O)(=O)c1ccccc1)C(=O)O", "note": "(centres undefined)", "survival": "inactive: 111%"}
{"smiles": "COc1ccc(-c2ccc3c(N)c(C(=O)Nc4ccc(C(F)(F)F)cc4)sc3n2)cc1OC", "survival": "inactive: 123%"}
{"smiles": "CC1=Nc2cc(C(=O)NCc3ccccc3Cl)ccc2Sc2c(C)ccc(C)c21", "survival": "inactive: 91%"}
{"smiles": "Cc1ccc(-c2cc3ncc(C(=O)c4cc(Cl)c(C)cc4O)cn3n2)cc1", "survival": "inactive: 91%"}
{"smiles": "CCN(C(=O)CSc1ncc2c(n1)-c1cc(Cl)ccc1N(Cc1ccccc1)S2(=O)=O)c1cccc(C)c1", "survival": "inactive: 84%"}
{"smiles": "CCOc1ccc(Br)cc1C1C(C(=O)OC)=C(C)NC2=C1C(=O)c1ccccc12", "note": "(centres undefined)", "survival": "inactive: 68%"}
{"smiles": "Cc1ccc(Cl)cc1NC(=O)C(Cc1ccccc1)NS(=O)(=O)c1cccc2nsnc12", "note": "(centres undefined)", "survival": "inactive: 70%"}
{"smiles": "COc1ccc(C)cc1NC(=O)c1c2c(nc3ccccc13)C(=O)N(C1CCCCC1)C2", "survival": "inactive: 45%"}
{"smiles": "COc1ccc(OC)c(C2Nc3c(C)cc(C)cc3-c3cc(C)nn32)c1", "note": "(centres undefined)", "survival": "active: -14%"}
{"smiles": "Cc1ccc(NS(=O)(=O)c2ccc3c(c2)CC(=O)N3)cc1Cl", "survival": "inactive: 37%"}
{"smiles": "CCc1c(C)sc2c1CCN(C(=O)Nc1ccccc1C(=O)OC)C2c1ccc(OC)cc1", "note": "(centres undefined)", "survival": "inactive: 81%"}
{"smiles": "Cc1ccc(Cl)cc1N1CCN(C(=O)c2cc3ccc4cccnc4c3[nH]2)CC1", "survival": "inactive: 129%"}
{"smiles": "CC(C)c1ccc(C2=CC(c3cccc(Cl)c3)n3c(nc4ccccc43)N2)cc1", "note": "(centres undefined)", "survival": "inactive: 60%"}
{"smiles": "O=C(NCc1ccc(Cl)cc1)C1=Cc2cc(Br)ccc2OC1", "survival": "inactive: 110%"}
{"smiles": "CCOc1ccc(NC(=O)CN2C(=O)C(c3ccc(Cl)cc3)=NC2(C)C)cc1", "survival": "inactive: 87%"}
{"smiles": "CCC(=O)N1CCc2cc(Br)cc(S(=O)(=O)N3CCCC(C(=O)Nc4cc(C)ccc4OC)C3)c21", "note": "(centres undefined)", "survival": "inactive: 103%"}
{"smiles": "CCn1c(=O)cc(OCC(=O)N(C)c2ccc(OC)cc2)c2ccccc21", "survival": "inactive: 78%"}
{"smiles": "Oc1cccc(/C=N/N=C/c2cccc(O)c2O)c1O", "survival": "inactive: 110%"}
{"smiles": "COc1ccc(OC)c(CNC(=O)c2ccc3nc(C(C)C)oc3c2)c1", "survival": "inactive: 77%"}
{"smiles": "COc1cc(OC)c(NC(=O)c2c(N3CCCC3=O)c3cc(C)ccc3n2C)cc1Cl", "survival": "inactive: 76%"}
{"smiles": "CCCc1ccc(S(=O)(=O)N2CCC(c3nnc(-c4cccc(C)c4)o3)CC2)cc1", "survival": "inactive: 77%"}
{"smiles": "COc1ccc(Cl)cc1C(=O)Nc1ccc2nc(Nc3cccc(Cl)c3)cc(C)c2c1", "survival": "inactive: 74%"}
{"smiles": "O=C1/C(=C/c2ccco2)SC(=S)N1CCc1ccccc1", "survival": "inactive: 124%"}
{"smiles": "Cc1ccccc1OCC(=O)Nc1nnc(S(=O)(=O)N2CCCC2)s1", "survival": "inactive: 71%"}
{"smiles": "O=C(NCc1ccccc1)C1CCN(C(=O)NCc2ccccc2)CC1", "survival": "inactive: 94%"}
{"smiles": "CCn1c(=O)c2cc(C(=O)NCCCN3CCN(c4ccc(F)cc4)CC3)sc2c2ccccc21", "survival": "inactive: 84%"}
{"smiles": "CCOc1ccccc1NC(=O)Cn1ncc2c([nH]c3ccccc32)c1=O", "survival": "inactive: 131%"}
{"smiles": "CC(C)Oc1ccc(CNC(=O)c2ccc3c(c2)nc2n3CCCCC2)cc1", "survival": "inactive: 119%"}
{"smiles": "Cc1cccc(OC(C)C(=O)Nc2nonc2-c2ccc(Br)cc2)c1C", "note": "(centres undefined)", "survival": "inactive: 94%"}
{"smiles": "CCOC(=O)C1CCN(c2cc(C)c(C#N)c3nc4ccccc4n23)CC1", "survival": "inactive: 99%"}
{"smiles": "COc1ccc(C2=C(C)C(=O)N(Cc3ccc(C(=O)NC(C)c4ccccc4)cc3)S2(=O)=O)cc1", "note": "(centres undefined)", "survival": "inactive: 81%"}
{"smiles": "CCOc1ccc(N2CC(c3nc4ccccc4n3CCCCOc3ccc(OC)cc3)CC2=O)cc1", "note": "(centres undefined)", "survival": "inactive: 71%"}
{"smiles": "Cc1cc(=O)n2nc(N3CCC(C(=O)Nc4c(C)cccc4C)CC3)sc2n1", "survival": "inactive: 124%"}
{"smiles": "Cc1cccc(N2C(=O)CSC23C(=O)N(CC(=O)Nc2cccc(Cl)c2)c2ccccc23)c1", "note": "(centres undefined)", "survival": "inactive: 143%"}
{"smiles": "CC1CCN(S(=O)(=O)c2cc3c4c(c2)C(C)C(=O)N4CCC3)CC1", "note": "(centres undefined)", "survival": "inactive: 94%"}
{"smiles": "O=C(NCc1ccco1)C(c1cccs1)N(C(=O)C1COc2ccccc2O1)c1cccc(O)c1", "note": "(centres undefined)", "survival": "inactive: 121%"}
{"smiles": "COc1ccc(CNC(=O)CN2C(=O)CSc3ccc(S(=O)(=O)N(C)C)cc32)cc1", "survival": "inactive: 135%"}
{"smiles": "COc1ccccc1CCN1COc2c(cc3c(C)c(C)c(=O)oc3c2C)C1", "survival": "inactive: 110%"}
{"smiles": "C=C/C=C(\\C=C(C)C)N(C(=O)NC1CCCCC1)C1=NCCCS1", "survival": "inactive: 95%"}
{"smiles": "O=C(NC1CCCCCC1)C1c2ccccc2C(=O)N1Cc1ccc(F)cc1", "note": "(centres undefined)", "survival": "inactive: 116%"}
{"smiles": "CCOc1nc(C)c(/C=C/C(=O)O)c(OCC)n1", "survival": "inactive: 102%"}
{"smiles": "CCc1cccc(NC(=O)Cn2c(=O)n(CCC(=O)NCc3ccccc3Cl)c(=O)c3sccc32)c1", "survival": "inactive: 104%"}
{"smiles": "Oc1c(C(c2ccccc2)N2CCOCC2)sc2nc(-c3ccco3)nn12", "note": "(centres undefined)", "survival": "inactive: 88%"}
{"smiles": "COc1ccc(NC2SC(=O)N(c3ccccc3)C2=O)cc1", "note": "(centres undefined)", "survival": "inactive: 118%"}
{"smiles": "CCN(CC)c1ccc(NC(=O)CN2CCN(c3ccccc3OC)CC2)cc1", "survival": "inactive: 92%"}
{"smiles": "Nc1c(C(=O)Nc2cccc(F)c2)nnn1-c1cccc(C(F)(F)F)c1", "survival": "inactive: 70%"}
{"smiles": "CCOC(=O)C(Cc1ccccc1)N1C(=O)c2ccccc2C1=O", "note": "(centres undefined)", "survival": "inactive: 104%"}
{"smiles": "Cc1cc(C)cc(NC(=O)c2sc3nc4n(c(=O)c3c2C)N=C(c2ccccc2)CS4)c1", "survival": "inactive: 68%"}
{"smiles": "Cc1ccc(CNC(=O)Cn2c(=O)cc(C)c3c(C)nn(-c4cccc(F)c4)c32)cc1", "survival": "inactive: 86%"}
{"smiles": "Cc1ccc(C)c(N2CCN(S(=O)(=O)c3ccc(-c4cnc(C5CC5)o4)cc3)CC2)c1", "survival": "inactive: 69%"}
{"smiles": "CCc1oc(C(=O)O)cc1COC", "survival": "inactive: 89%"}
{"smiles": "Cc1ccccc1NC(=O)C(C)Sc1nnc(-c2ccccc2O)o1", "note": "(centres undefined)", "survival": "inactive: 117%"}
{"smiles": "O=C(Cn1ncc2c3ccccc3n(Cc3cccc(Cl)c3)c2c1=O)NCCCN1CCCCC1", "survival": "inactive: 124%"}
{"smiles": "CCOCCCNc1nc2c(S(=O)(=O)c3ccc(CC)cc3)nnn2c2ccc(Cl)cc12", "survival": "inactive: 75%"}
{"smiles": "O=C(NCCc1ccccc1)C1CCN(Cc2cc3ccccc3n2Cc2ccccc2)CC1", "survival": "inactive: 71%"}
{"smiles": "COc1ccc(-c2cn3cccnc3n2)cc1NC(=O)Nc1cc(C)ccc1C", "survival": "inactive: 90%"}
{"smiles": "Cc1ccc(NC(=O)CSc2nc(-c3cccs3)nc3cc(=O)[nH]n23)cc1C", "survival": "inactive: 93%"}
{"smiles": "CCOc1ccccc1CN1CCc2nc(N3CCN(C)CC3)ncc2C1", "survival": "active: -4%"}
{"smiles": "CCOc1ccc(-c2cc(C(=O)NC(C)c3ccccc3)c3ccccc3n2)cc1", "note": "(centres undefined)", "survival": "inactive: 73%"}
{"smiles": "COc1ccc(COC(=O)C2=C(C)NC(=O)CC2c2cccc(Cl)c2Cl)cc1", "note": "(centres undefined)", "survival": "inactive: 100%"}
{"smiles": "CN1C(C(=O)c2ccccc2)=C(NC(=O)c2ccc(F)cc2)c2ccccc2S1(=O)=O", "survival": "inactive: 102%"}
{"smiles": "O=C(Nc1ccc(C(=O)N2CCN(c3ccccc3F)CC2)cc1)c1nsc2ccccc12", "survival": "inactive: 55%"}
{"smiles": "CCOC(=O)N1CCc2c(sc3c2c(=O)n(-c2ccc(F)cc2)c(=O)n3CC(=O)c2ccc(Cl)cc2)C1", "survival": "inactive: 85%"}
{"smiles": "CN(C)CCN(Cc1ccco1)C(=O)c1cc2c(s1)-c1ccccc1OC2", "survival": "inactive: 70%"}
{"smiles": "COc1ccc(-c2onc(C)c2C)cc1S(=O)(=O)Nc1cccc(C#N)c1", "survival": "inactive: 131%"}
{"smiles": "O=C(NCCc1ccc(Cl)cc1)c1ccc2c(c1)nc1n2CCOC1", "survival": "inactive: 64%"}
{"smiles": "CCNC(=S)N1CCN(C(=O)C(Cc2ccccc2)NC(C)=O)CC1", "note": "(centres undefined)", "survival": "inactive: 110%"}
{"smiles": "CCc1ccc(NS(=O)(=O)c2ccc(-c3cc(C)no3)cc2)cc1", "survival": "inactive: 99%"}
{"smiles": "Cc1cccc(NC(=O)C2CC(=O)NC(Nc3nc4ccccc4s3)=N2)c1", "note": "(centres undefined)", "survival": "inactive: 104%"}
{"smiles": "Cc1cccc(C(=O)NC2(C(F)(F)F)N=C(c3ccccc3)N(C3CCCCC3)C2=O)c1", "note": "(centres undefined)", "survival": "inactive: 67%"}
{"smiles": "CC(=O)C1=C(c2ccc(F)cc2)N(C(C)=O)n2c(nnc2C2CCCCC2)S1", "survival": "inactive: 78%"}
{"smiles": "Cc1cccc(OCc2nnc(SCC(N)=O)o2)c1", "survival": "inactive: 109%"}
{"smiles": "CCOc1ccc(C(=O)NCC(c2ccc(Cl)cc2)N2CCCCC2)cc1", "note": "(centres undefined)", "survival": "inactive: 87%"}
{"smiles": "CCCCNc1ccc(-c2nc(-c3ccccn3)no2)cc1[N+](=O)[O-]", "survival": "inactive: 82%"}
{"smiles": "COc1ccc(-c2nnn3c2nc(NCc2ccc(C)cc2)c2ccccc23)cc1", "survival": "inactive: 85%"}
{"smiles": "O=C1C2C3c4ccccc4C(c4ccccc43)C2C(=O)N1CCN1CCNCC1", "note": "(centres undefined)", "survival": "inactive: 113%"}
{"smiles": "Cc1cc(C)c(NC(=O)C(C)n2c(=O)cc(-c3ccccc3)c3c(C)nn(C)c32)c(C)c1", "note": "(centres undefined)", "survival": "inactive: 89%"}
